Experimental data reported in the supplement of paper PMC9446081.
Hit rate of the full screen: of about 39,000 compounds, about 220 (0.56%) showed activity. Some of the results follow.

These compounds were tested on Escherichia coli K-12 BW25113 (assay: relative growth (OD600 normalised to plate interquartile mean) (fraction); higher = less growth inhibition, active = 0.2 or less). Conditions: 50 µM; LB; incubation time: overnight (16-24 h).
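Note: static incubation at 37 °C against the wild-type strain, values averaged over two biological replicates.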

SMILES | relative growth
NNCCc1ccccc1.O=S(=O)(O)O | inactive: 0.877
Cc1ccc(S(=O)(=O)N[C@H](C)C(=O)O)cc1 | inactive: 0.997
Cc1ccc(S(=O)(=O)Nc2ccc3c(c2)C(=O)N([C@@H](C)CO)C[C@H](C)[C@@H](CN(C)Cc2ccc(C(=O)Nc4ccccc4N)cc2)OCCCC[C@@H](C)O3)cc1 | inactive: 0.972
C[C@@H]1CN([C@H](C)CO)C(=O)c2cccc(NS(=O)(=O)c3ccccc3)c2O[C@H]1CN(C)S(=O)(=O)c1cn(C)cn1 | inactive: 1
C[C@@H]1CCCCO[C@H](CN(C)C(=O)Nc2ccc(C(F)(F)F)cc2)[C@H](C)CN([C@H](C)CO)C(=O)c2cc(NC(=O)Nc3cccc4ccccc34)ccc2O1 | inactive: 1
C[C@@H]1CN([C@H](C)CO)S(=O)(=O)c2ccc(C#Cc3ccncc3)cc2O[C@@H]1CN(C)S(=O)(=O)c1ccc(F)cc1 | inactive: 1.01
NCCNC1=NS(=O)(=O)c2ccccc21 | inactive: 0.818
C[C@H](CO)N1C[C@H](C)[C@@H](CN(C)Cc2ccccc2)OCCCC[C@H](C)Oc2ccc(NS(=O)(=O)c3ccccc3)cc2C1=O | inactive: 0.981
C[C@H]1CCCCO[C@H](CN(C)CC2CCCCC2)[C@@H](C)CN([C@@H](C)CO)C(=O)c2cc(NS(=O)(=O)c3ccc(Cl)cc3)ccc2O1 | inactive: 0.977
COc1ccc(CN(C)C[C@H]2OCCCC[C@H](C)Oc3ccc(NC(=O)NC(C)C)cc3C(=O)N([C@@H](C)CO)C[C@H]2C)cc1 | inactive: 0.941
COCC(=O)N1C[C@H](C)[C@@H](OC)CN(C)C(=O)c2ccc(NC(=O)c3ccc(OC)cc3)cc2OC[C@H]1C | inactive: 0.983
O=C(C[C@H]1CC[C@@H]2[C@H](COC[C@H](O)CN2C(=O)c2cccnc2)O1)NCc1ccc(-c2ccccc2)cc1 | inactive: 1.03
CCCN(CCC)C(=O)C(CCC(=O)O)NC(=O)c1ccccc1 (stereo not drawn) | inactive: 0.944
C[C@H](CO)N1C[C@H](C)[C@@H](CN(C)C(=O)c2ccc3c(c2)OCO3)Oc2ncc(C#CCN(C)C)cc2C1=O | inactive: 0.978
COCC(=O)Nc1ccc2c(c1)OC[C@H](C)N(Cc1ccccc1F)C[C@@H](C)[C@@H](OC)CN(C)C2=O | inactive: 0.984
C[C@@H]1CN([C@@H](C)CO)C(=O)c2cccc(NC(=O)c3ccc(-c4nccs4)cc3)c2O[C@H]1CN(C)C(=O)Nc1ccc(F)cc1 | inactive: 0.994
O=C(C[C@H]1CC[C@H]2[C@@H](COC[C@@H](O)CN2C(=O)Nc2ccc(Cl)c(Cl)c2)O1)NCc1ccc(Cl)c(Cl)c1 | inactive: 0.991
C[C@@H]1CN([C@H](C)CO)C(=O)c2cc(NC(=O)CCC(F)(F)F)ccc2O[C@H]1CN(C)S(=O)(=O)c1cn(C)cn1 | inactive: 0.861
C[C@H]1CN([C@@H](C)CO)C(=O)c2cc(NS(=O)(=O)c3ccc(Cl)cc3)ccc2O[C@H]1CN(C)Cc1ccc(C(=O)Nc2ccccc2N)cc1 | inactive: 1.02
CC1C=CC=CC=CC=CC=CC=CC=CC(OC2OC(C)C(O)C(N)C2O)CC(O)C(C(=O)O)C(O)CC(=O)CC(O)CC(O)CC(O)CC(=O)CCCC(=O)CC(=O)OC1C(C)CC(C)C(O)CC(=O)c1ccc(N)cc1 (stereo not drawn) | inactive: 1.11

SMILES | relative growth
COc1ccccc1NC(=O)N(C)C[C@@H]1Oc2ncc(C#CCN(C)C)cc2C(=O)N([C@@H](C)CO)C[C@@H]1C | inactive: 1.01
Cc1ccc(S(=O)(=O)Nc2ccc3c(c2)C(=O)N([C@H](C)CO)C[C@@H](C)[C@H](CN(C)Cc2ccc(C(F)(F)F)cc2)O3)cc1 | inactive: 1.03
COCC(=O)N1CC(=O)N2[C@H](CO)[C@@H](c3ccc(C#Cc4cccnc4)cc3)[C@H]2C1 | inactive: 1.02
COC(=O)c1cc(=O)n2ccccc2c1C#N | inactive: 0.98
C[C@@H]1CCCCO[C@H](CN(C)C(=O)Nc2ccc(F)cc2)[C@H](C)CN([C@H](C)CO)C(=O)c2cc(NC(=O)CCC(F)(F)F)ccc2O1 | inactive: 1.03
C[C@@H]1CN([C@@H](C)CO)C(=O)c2cc(NC(=O)c3ccncc3)ccc2O[C@@H]1CN(C)C(=O)Nc1ccc2c(c1)OCO2 | inactive: 0.991
C[C@@H]1CN([C@@H](C)CO)C(=O)c2cccc(NS(C)(=O)=O)c2O[C@H]1CN(C)S(=O)(=O)c1cccs1 | inactive: 1.01
C[C@H](CO)N1C[C@H](C)[C@H](CN(C)C(=O)Nc2ccccc2)Oc2c(NS(=O)(=O)c3cn(C)cn3)cccc2C1=O | inactive: 0.959
C[C@H](CO)N1C[C@H](C)[C@H](CN(C)Cc2ccc(C(F)(F)F)cc2)OCCCC[C@H](C)Oc2ccc(NC(=O)Nc3ccccc3)cc2C1=O | inactive: 1.05
C[C@@H]1CCCCO[C@@H](CN(C)S(=O)(=O)c2cn(C)cn2)[C@H](C)CN([C@@H](C)CO)C(=O)c2cc(NC(=O)Nc3cccc4ccccc34)ccc2O1 | inactive: 1
C[C@H](O)C#Cc1ccc2c(c1)O[C@@H](CN(C)C(=O)CN(C)C)[C@@H](C)CN([C@H](C)CO)S2(=O)=O | inactive: 0.896
C[C@@H]1CN([C@H](C)CO)C(=O)c2cc(NC(=O)CCCN(C)C)ccc2O[C@H]1CN(C)S(=O)(=O)c1ccccc1 | inactive: 0.985
C[C@H](CO)N1C[C@H](C)[C@@H](CN(C)C(=O)Nc2ccc(F)cc2)OCCCC[C@H](C)Oc2ccc(NS(=O)(=O)c3ccc(Cl)cc3)cc2C1=O | inactive: 1.02
C[C@H](CO)N1C[C@H](C)[C@@H](CN(C)S(=O)(=O)c2ccccc2)Oc2c(NC(=O)c3ccncc3)cccc2C1=O | inactive: 1.01
COc1ccc(NC(=O)Nc2ccc3c(c2)C(=O)N([C@@H](C)CO)C[C@@H](C)[C@@H](CN(C)S(=O)(=O)c2ccc(C)cc2)OCCCC[C@H](C)O3)cc1 | inactive: 1.04
COc1ccccc1N1CCN(CC(O)COc2cccc3ccccc23)CC1 (stereo not drawn) | inactive: 0.8
C[C@@H]1CCCCO[C@@H](CN(C)C(=O)Cc2ccccc2)[C@@H](C)CN([C@@H](C)CO)C(=O)c2cc(NS(=O)(=O)c3cccs3)ccc2O1 | inactive: 0.991
CO[C@H]1CN(C)C(=O)c2cc(NC(=O)C3CC3)ccc2OC[C@H](C)N(C(=O)CN2CCOCC2)C[C@@H]1C | inactive: 0.95
COc1ccc(NC(=O)N(C)C[C@@H]2Oc3ccc(NS(=O)(=O)c4cn(C)cn4)cc3C(=O)N([C@H](C)CO)C[C@H]2C)cc1 | inactive: 0.981
O=C(Nc1nnn[nH]1)c1cncc(N2CCCC2)n1 | inactive: 0.965

SMILES | relative growth
C[C@@H]1CN([C@@H](C)CO)C(=O)Cc2cc(NC(=O)CCCN(C)C)ccc2O[C@@H]1CN(C)Cc1ccc(Oc2ccccc2)cc1 | inactive: 0.964
C[C@H]1CN([C@@H](C)CO)C(=O)c2cc(NC(=O)CCN3CCOCC3)ccc2O[C@@H]1CN(C)C(=O)Nc1ccccc1 | inactive: 0.991
C[C@H]1CN([C@@H](C)CO)C(=O)c2cc(NC(=O)CCCCCC(=O)Nc3ccccc3N)ccc2O[C@H]1CN(C)Cc1ccc(Cl)c(Cl)c1 | inactive: 0.993
C=CCC[C@H](Cc1ccc(F)cc1)C(=O)O[C@H](CNC(=O)[C@@H](CC=C)CC(=O)N[C@@H](CO)Cc1ccccc1)c1ccccc1 | inactive: 1
C[C@H]1CN([C@@H](C)CO)C(=O)CCCn2cc(nn2)CO[C@@H]1CN(C)Cc1ccc(C(=O)Nc2ccccc2N)cc1 | inactive: 0.987
C[C@@H]1CN([C@H](C)CO)C(=O)c2cc(NS(=O)(=O)c3cn(C)cn3)ccc2O[C@@H]1CN(C)Cc1ccccc1 | inactive: 0.913
COc1ccc(NC(=O)Nc2ccc3c(c2)C(=O)N([C@H](C)CO)C[C@H](C)[C@@H](CN(C)C(=O)Nc2ccc(F)cc2)OCCCC[C@H](C)O3)cc1 | inactive: 1.04
Cc1ccc(S(=O)(=O)N(C)C[C@H]2Oc3c(NC(=O)c4cnccn4)cccc3C(=O)N([C@@H](C)CO)C[C@@H]2C)cc1 | inactive: 1.03
C[C@H]1CN([C@@H](C)CO)C(=O)CCCn2nncc2CO[C@@H]1CN(C)C(=O)Nc1ccc(C(F)(F)F)cc1 | inactive: 0.968
O=C(C[C@@H]1CC[C@@H]2[C@H](COC[C@@H](O)CN2C(=O)Nc2ccc(Cl)c(Cl)c2)O1)NCc1ccncc1 | inactive: 0.943
COCC(=O)Nc1ccc2c(c1)C(=O)N(C)C[C@H](OC)[C@@H](C)CN(C(=O)Cc1cccnc1)[C@H](C)CO2 | inactive: 0.988
CCNC(=S)NCC1CC1 | inactive: 0.954
C[C@H](CO)N1C[C@H](C)[C@H](CN(C)S(=O)(=O)c2cn(C)cn2)OCCCC[C@H](C)Oc2ccc(NS(=O)(=O)c3cn(C)cn3)cc2C1=O | inactive: 0.992
CSCCNc1nc(SCCC(F)(F)F)nc2c1ncn2[C@@H]1O[C@H](COP(=O)(O)OP(=O)(O)C(Cl)(Cl)P(=O)(O)O)[C@@H](O)[C@H]1O | inactive: 0.999
COc1ccc(NC(=O)Nc2ccc3c(c2)C(=O)N([C@@H](C)CO)C[C@@H](C)[C@H](CN(C)Cc2ccc(C(F)(F)F)cc2)OCCCC[C@H](C)O3)cc1 | inactive: 0.976
Cn1cnc(S(=O)(=O)N[C@@H]2C=C[C@@H](CC(=O)Nc3ccccc3)O[C@@H]2CO)c1 | inactive: 0.996
CC(=O)N[C@H]1CC[C@@H](CCNC(=O)C2CC2)O[C@H]1CO | inactive: 0.943
CC(C)NC(=O)Nc1ccc2c(c1)C(=O)N([C@@H](C)CO)C[C@@H](C)[C@H](CN(C)C(=O)Nc1cccc3ccccc13)OCCCC[C@H](C)O2 | inactive: 1
